This passage reports activation results from PubChem BioAssay AID1346428 (National Center for Advancing Translational Sciences (NCATS), 2018).

Several values for one entry are separate records, joined by “and”; a condition that tells them apart may be missing. Equal entries are not always repeated. Among all 48,000 compounds or so, about 1,200 (2.5%) were called active. Not shown: some 2% with an inconclusive outcome.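 How the source made its calls: active means activation of at least 60% and not above a set upper limit (about 1 call in 100 departs from these limits); inconclusive means activation of 40% to 60%, or above that upper limit; inactive means activation under 40%.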 The list shows a part of the results.

In the assay the target is Probable G-protein coupled receptor 32 (Homo sapiens) (UniProt O75388). In words: qHTS for Agonists of Human Resolvin D1 Receptor DRV1. Further: 0% is about no effect. Particulars: CHO-K1 GPR32 beta-arrestin PathHunter luminescence, 90 min; at 76.9 µM; stronger effect = higher value; zero percent set by DMSO-only wells. A digest of the protocol: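 Readings come from a cell-based beta-arrestin complementation format: CHO-K1 GPR32 stable cells (2,500/well) treated 90 min with compounds, then beta-Gal substrate added for 1 h before chemiluminescence imaging.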
Chain of UniProt O75388 (O75388 whole entry, looked up): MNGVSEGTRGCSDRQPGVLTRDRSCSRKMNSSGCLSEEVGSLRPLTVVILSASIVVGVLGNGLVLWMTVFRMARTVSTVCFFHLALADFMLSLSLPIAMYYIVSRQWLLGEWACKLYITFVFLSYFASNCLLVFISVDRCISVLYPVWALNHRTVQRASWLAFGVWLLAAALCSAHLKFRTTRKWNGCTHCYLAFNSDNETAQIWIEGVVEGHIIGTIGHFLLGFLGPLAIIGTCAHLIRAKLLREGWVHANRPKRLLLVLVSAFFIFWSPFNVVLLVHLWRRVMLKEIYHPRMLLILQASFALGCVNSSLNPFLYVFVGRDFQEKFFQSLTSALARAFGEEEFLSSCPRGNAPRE
On the technique in general: Quantitative high-throughput screening tests each substance at several concentrations.
As for `Cc1c(NC(=O)c2cccnc2)c(=O)n(-c2ccccc2)n1C`, the activation was inactive: -20.9%.

As for `Cc1cccc(OCCn2c(-c3ccc(Cl)cc3)nc3ccccc3c2=O)c1`, the activation is inactive: 16.4%.

Consider `CCCc1nn2c(=O)cc(COC(=O)c3cccc(NC(=O)COc4ccccc4C)c3)nc2s1`, for which the activation is inactive: 0.442%.

For the molecule `O=C(NCCc1ccccc1)c1cnc2sc(N3CCCC3)nn2c1=O`, the activation is inactive: -3.71%.

Consider `CCN1CCN(CCCNC(=O)c2cc3c(=O)n(C)c4ccccc4c3s2)CC1`, for which the activation was inactive: 20.9%.

As for `CCCCOc1ccc(C(=O)N2CCN(CCc3ccncc3)CC2)cc1`, the activation was inactive: 24.7%.

Consider `COC(=O)C1=C(CS(=O)(=O)c2cc(Cl)ccc2OC)NC(=O)NC1c1ccccc1` (centres undefined), for which the activation is inactive: 37.7%.

In the case of `CC(=O)c1c(C)nc2nc(-c3ccccc3)nn2c1C`, the activation is inactive: 45.2%.

As to `COc1ccccc1N1CCN(C(=O)c2nn(-c3ccc(C)cc3)c(=O)n(C)c2=O)CC1`, the activation is inactive: -9.24%.

Regarding `COCCCNC(=O)c1oc2c(c1C)-c1nn(Cc3cccc(Cl)c3)cc1CC2`, the activation was inactive: -5.98%.

Take `O=C(/C=C/c1ccc(O)cc1)c1ccc(O)cc1O`: the activation was inactive: -17.6%.

As for `CC1Cc2cc(S(=O)(=O)N3CCN(c4ccccc4F)CC3)ccc2N1C(=O)C1CCC1` (centres undefined), the activation is inactive: 6.02%.

`Cc1cc(F)ccc1S(=O)(=O)NCC(c1ccco1)S(=O)(=O)c1cccs1` (centres undefined): the activation is inactive: -9.01%.

On to `CCOC(=O)c1ccc(Nc2c(-c3ccc(O)c(OC)c3)nc3nc[nH]n23)cc1`, for which the activation is inactive: -38.6%.

With `Cc1cc2nnc(SCC(=O)Nc3ccc(F)c(Cl)c3)n2c2ccccc12`, the activation was inactive: 48%.

In the case of `C=C(C)CSc1nc2sc3c(c2c(=O)n1-c1ccccc1)CC(C(C)C)OC3` (centres undefined), the activation is inactive: 5.29%.

As to `CCC1CN(C(=O)N2CCC(C(=O)NCc3cccc(C)c3)CC2)c2ccccc2O1` (centres undefined), the activation was inactive: -11.7%.

Regarding `CCCCC(CC)CNC(=O)CN1C(=O)CSc2ccc(S(=O)(=O)N3CCOCC3)cc21` (centres undefined), the activation was inactive: -22.9%.

As to `O=C(Cn1c(=O)nc(-c2ccccc2F)c2cc(Cl)ccc21)N1CCN(c2ccccc2F)CC1`, the activation is inactive: -20.4%.

As for `COc1ccc(CNC(=O)c2c3c(nc4ccccc24)C(=O)N(C2CCCCC2)C3)c(OC)c1`, the activation is inactive: 7.79%.

For `COC(=O)c1scc(-c2ccc(C)cc2)c1S(=O)(=O)Nc1cc(OC)c(OC)c(OC)c1`, the activation was inactive: -5.9%.

Take `CCOc1ccccc1N(CC)C(=O)c1cc2c(=O)[nH]c3ccc(C)cc3c2s1`: the activation was inactive: -16.9%.

`Cc1ccc(NC(=O)/C(C#N)=C/c2ccc(C(C)C)cc2)cc1C`: the activation is inactive: -1.58%.

Turning to `Clc1cccc(-n2ncc3c(N4CCCCC4)ncnc32)c1`, the activation is inactive: 31.3%.

On to `O=C(Cn1cc(S(=O)(=O)Cc2cccc(Cl)c2)c2ccccc21)NCCc1ccccc1`, for which the activation is inactive: -1.74%.

For `CC(=O)Nc1nonc1-c1nnc(SCC(=O)N(C)c2ccccc2)n1C`, the activation was inactive: 0.265%.

Take `CCN(c1cccc(C)c1)S(=O)(=O)c1ccc2[nH]cc(C(=O)NCCCOC)c(=O)c2c1`: the activation is active: 96.5%.

Regarding `COc1ccc(CNC(=O)C(=O)Nc2ccc(OC)cc2OC)cc1`, the activation was inactive: -0.113%.

Consider `CCOC(=O)c1cnc2c(C)c(Cl)ccc2c1NCCc1ccccc1`, for which the activation was inactive: -4.52%.

As to `CCc1ccc(-c2nn(CC(=O)Nc3ccccc3)c3c2cnc2ccc(F)cc23)cc1`, the activation was inactive: 6.65%.

`CC(=O)NCc1c(I)c(NC(C)=O)c(I)c(C(=O)O)c1I`: the activation was inactive: 9.27%.

As to `COc1ccc(N2CCN(C(=O)c3cn(CC(C)C)c(=O)c4c3c3ccccc3n4C)CC2)cc1`, the activation was inactive: -28.3%.

Consider `O=C(Cn1c(=O)c2cccn2c2ccccc21)Nc1cc(F)ccc1F`, for which the activation was inactive: -21.2%.

On to `CCOC(=O)c1cc(-c2ccccc2)n(-c2cccc(C(=O)Nc3ccc(OC)cc3)c2)c1C`, for which the activation is inactive: -32.7%.

Take `CCOc1ccc(N(C(=O)Cn2nnc3ccccc32)C(C(=O)NCc2ccccc2)c2ccc(OC)cc2)cc1` (centres undefined): the activation is inactive: -16.4%.

For the molecule `CC(C)(C)C1CCc2c(sc(NC(=O)Cn3nnc(-c4ccccc4F)n3)c2C#N)C1` (centres undefined), the activation is inactive: 20.4%.

On to `Cc1onc(-c2ccccc2Cl)c1C(=O)Oc1cc(F)cc(F)c1`, for which the activation is inactive: -39.5%.

`COC(=O)c1ccccc1NC(=O)Cn1c(=O)n(-c2cccc(OC)c2)c(=O)c2c(C)c(C(=O)N(C)C)sc21`: the activation is inactive: -6.7%.

Regarding `CCC(C(=O)NCCc1ccc(SC)cc1)n1nc(C)c2sc3ccccc3c2c1=O` (centres undefined), the activation was inactive: -33.3%.

With `CC(=O)N1CCCc2cc(S(=O)(=O)N3CCC(C(=O)NCc4ccc(C)cc4)CC3)ccc21`, the activation is inactive: 0.806%.

In the case of `COc1ccc(-c2[nH]ncc2C(=O)NCc2ccccc2C)cc1`, the activation is inactive: -16%.

As for `COc1ccc(OCC(=O)OCc2cc(=O)n3nc(C4CCCCC4)sc3n2)cc1`, the activation was inactive: -9.26%.

`CC(=O)Nc1cccc(NC(=O)C(=O)NCCc2sc(-c3ccccc3)nc2C)c1`: the activation is inactive: 37.1%.

With `CCN(CC)CCNC(=O)c1cn(CC)c2ccc(S(=O)(=O)N3CCOCC3)cc2c1=O`, the activation is inactive: -12.6%.

Consider `Cc1ccc(CCNC(=O)Cn2nc(-c3ccc(C)cc3)ccc2=O)cc1`, for which the activation was inactive: -19.2%.

Take `OCc1c[nH]c2ccccc12`: the activation is inactive: -21.9%.

As for `Cc1ccc(C)c(NC(=O)CSc2ncc(S(=O)(=O)c3ccc(C)c(Cl)c3)c(=O)[nH]2)c1`, the activation is inactive: -5.81%.

In the case of `O=C(Cn1ncc2ccc(Cl)cc21)NCc1ccc(F)cc1`, the activation is inactive: -19.6%.

With `CSc1cccc(Nc2nc3c(S(=O)(=O)c4ccccc4)nnn3c3ccc(Cl)cc23)c1`, the activation was inactive: 3.77%.

As for `O=C(c1ccc2c(c1)N(Cc1ccc(F)cc1)C(=O)c1ccccc1S2=O)N1CCC(Cc2ccccc2)CC1` (centres undefined), the activation is inactive: -6.35%.

Take `COc1ccccc1NC(=O)c1cccc(S(=O)(=O)N2CCCCCC2)c1`: the activation was inactive: -31.2%.

For the molecule `CCc1ccc(CNC(=O)c2ccc(NC(=O)N3CCCCc4ccccc43)cc2)cc1`, the activation was inactive: -12.6%.

As to `COc1ccc(Cn2c(SCc3ccc(C(=O)NC(C)C)cc3)nc3cccnc32)cc1`, the activation was inactive: 3.04%.

As for `Cc1ccc(C(=O)Nc2cccc(C(=O)O)c2)cc1S(=O)(=O)N1CCCC1`, the activation was inactive: -2.42%.

Regarding `Cc1c(Cl)cccc1NC(=O)Nc1nnc(N2CCCCCC2)s1`, the activation is inactive: 3.19%.

With `CCn1cc(C(=O)NCCCN2CCCC(C)C2)c(=O)c2cc(S(=O)(=O)N(C)C3CCCCC3)ccc21` (centres undefined), the activation was inactive: -3.87%.

On to `Cc1cc(C)cc(-n2ccn(CC(=O)Nc3cc(C)ccc3C)c(=O)c2=O)c1`, for which the activation was inactive: -10.5%.

As for `Cc1ccc(N2CC(NC(=O)c3ccc(S(=O)(=O)N4CCCC4)cc3)CC2=O)cc1C` (centres undefined), the activation is inactive: 1.17%.

Consider `COc1ccc(CCNc2nc(-c3ccc(OC)c(OC)c3)cc(C(F)(F)F)n2)cc1OC`, for which the activation is inactive: -3.74%.

As to `Cc1cccc(CS(=O)(=O)Cc2ccc(C(=O)NCCc3ccccc3)o2)c1`, the activation was inactive: -9.77%.

On to `Cc1ccc(-c2cn(-c3cccc(Cl)c3)c(S(=O)(=O)CC(=O)Nc3cccc(C)c3)n2)cc1`, for which the activation is inactive: -26.7%.

Consider `CCOC(=O)c1c(S(=O)(=O)N2CCCC(C(=O)NCc3cccc(OC)c3)C2)c(C)n(C)c1C` (centres undefined), for which the activation is inactive: -5.61%.

For the molecule `COc1cccc(OC)c1C(=O)Nc1cccc(-c2cn3ccsc3n2)c1`, the activation is inactive: -13.3%.

With `COc1ccc(-c2nnc(SCC(=O)NC3CCCC3)nc2-c2ccc(OC)c(OC)c2)cc1OC`, the activation is inactive: -22.3%.

For the molecule `CCOc1ccc(N2CC(c3nc4ccccc4n3Cc3ccccc3F)CC2=O)cc1` (centres undefined), the activation was inactive: -5.56%.

With `O=C(NCc1ccccc1)C1CCN(S(=O)(=O)c2ccc3c(c2)CCCN3C(=O)C2CCC2)CC1`, the activation is inactive: -14.6%.

For the molecule `O=C(CCC1N=C2c3ccccc3N=C(SCc3cccc(F)c3)N2C1=O)NCc1cccs1` (centres undefined), the activation is inactive: -22.4%.

As for `CCOC(=O)c1scc(-c2ccc(C)cc2)c1S(=O)(=O)N1CCN(c2ccccc2F)CC1`, the activation was inactive: -6.94%.

As to `CCOc1ccc(NC(=O)c2ccc(F)c(S(=O)(=O)N(CC)Cc3ccccc3)c2)cc1`, the activation was inactive: -11%.

For the molecule `Cc1cccc(NC(=O)C(=O)NCC(c2cccnc2)N2CCc3ccccc3C2)c1C` (centres undefined), the activation was inactive: -22.2%.

Turning to `CCCCCSc1ncnc2c1sc1nc(N3CCOCC3)c3c(c12)CCCC3`, the activation is inactive: -4.95%.

Consider `Cc1ccc(NC(=O)NCc2cccn2Cc2ccccc2)c(C)c1`, for which the activation was inactive: -14.4%.

As to `COc1ccc(OC)c(NC(=O)c2cc(S(=O)(=O)NCCc3ccc(Cl)cc3)ccc2F)c1`, the activation is inactive: -15%.

Regarding `CCC(C)NC(=O)Cn1c(=O)n(-c2ccc(C)c(C)c2)c(=O)c2c3c(sc21)CCCCC3` (centres undefined), the activation is inactive: 7.11%.

As for `N[C@@H](Cc1c[nH]c2ccccc12)C(=O)O`, the activation is inactive: -9.77%.

On to `CCOc1ccc(CCNC(=O)c2sc3ncccc3c2-n2cccc2)cc1OCC`, for which the activation is inactive: -18.6%.

As to `Nc1cc(=O)[nH]c(N)n1`, the activation is inactive: -7.55% and inactive: -3.81%.

Turning to `COC(=O)c1ccc(-c2nc3cc(NC(C)=O)ccc3o2)cc1`, the activation is inactive: -7.12%.

Turning to `O=C(OOC(=O)c1ccccc1)c1ccccc1`, the activation is inactive: 40.8%.

`CCCCc1nn2c(=O)cc(COC(=O)C3CCCCC3)nc2s1`: the activation is inactive: 7.73%.

For the molecule `Cc1nc2nc(SCC(=O)NC3CCC(C)CC3)nn2c(C)c1Cc1ccccc1` (centres undefined), the activation was inactive: -19.1%.

Turning to `CCOc1ccc(OCC)c(NC(=O)c2ccc(-c3ccccc3)s2)c1`, the activation was inactive: -6.71%.

On to `Cc1cccc(N2CCN(C(=O)c3ccc4c(c3)N(Cc3cccc(Cl)c3)C(=O)c3ccccc3S4=O)CC2C)c1` (centres undefined), for which the activation was inactive: -30.8%.

Take `CCOc1cccc2sc(N3CCN(C(=O)C4CC4)CC3)nc12`: the activation was inactive: -20.9%.
